Assay results taken from PubChem BioAssay AID624296 (National Center for Advancing Translational Sciences (NCATS), 2012).
The whole screen tested about 350,000 compounds, of which about 9,900 (2.8%) were called active. The shares of active, inactive and inconclusive entries below differ from those in the screen. The call rests on the fitted dose curve; in most records, active means well fitted activation curve with a large enough effect; inconclusive means small, poorly fitted or top-dose-only effect; inactive means no such curve, though single readings can be large or run the other way. No potency is given beside an inconclusive call; the fits are too rough.

experiment: A quantitative high throughput screen for small molecules that induce DNA re-replication in MCF 10a normal breast cells.; further: nearly all actives have a fitted effect of over 50% in size; conditions: MCF 10A DNA re-replication, Hoechst nuclear intensity, 48 h; series mostly up to 46.1 µM
Potency means the concentration at half of the fitted maximal effect; tags describe the fitted curve by direction and shape.

Row | SMILES | Potency
1 | O=C(CSc1ccc2c(c1)OCCO2)Nc1cccc(S(=O)(=O)N2CCCCC2)c1 | inactive
2 | O=C(CCCOc1ccccc1)NNC(=O)c1ccc(Cl)cc1 | inactive
3 | Cc1onc(-c2ccccc2)c1C(=O)N/N=C/c1cc(Br)c(Br)o1 | inconclusive [activator, single point]
4 | O=C(c1ccco1)N1N=C(c2ccco2)CC1c1ccc(Cl)cc1Cl (configuration not stated) | active: 23.1 µM
5 | CC(C)(C)c1cc(CCC(=O)N2CCNCC2)c(C(C)(C)C)cc1O | inconclusive [activator, single point]
6 | COc1ccc(NC(=O)CSCC(=O)Nc2cc(Cl)ccc2N2CCCC2)cc1 | inconclusive [activator, single point]
7 | COc1ccc(OC)c(Nc2cc(C)nc3nc(C)nn23)c1 | inconclusive [activator, single point]
8 | CC(=O)OCCCN1c2ccccc2Nc2nnc(-c3ccccc3)cc21 | inactive
9 | CC1CCN(c2ccc3c(c2)S(=O)(=O)c2cccc(C(=O)NC4CCCCC4)c2C3=O)CC1 | inconclusive [activator, single point]
10 | C#CCOc1ccc(/C=C2/C(=O)ON=C2C)cc1Cl | inconclusive [activator, single point]
11 | CC(C)C(=O)c1c(C(C)C)nn2ccccc12 | inconclusive [activator, full curve, poor fit]
12 | COc1ccc(-c2noc(-c3ccc(Cl)cc3)n2)cc1 | inconclusive [activator, full curve, poor fit]
13 | COc1cccc(COCC(O)CN2CCC(C(N)=O)CC2)c1 (configuration not stated) | inactive
14 | COC(=O)c1ccc(CSc2nnc(Nc3ccc(C)cc3)s2)o1 | inactive
15 | COC(=O)c1cc(C(=O)Nc2nnc(C3CC3)s2)cc([N+](=O)[O-])c1 | inconclusive [activator, partial curve, poor fit]
16 | O=C(c1cccc([N+](=O)[O-])c1)N1CCN(C/C=C/c2ccccc2)CC1 | inactive
17 | CCN(CC)CCOC(=O)c1ccc2c(c1)OCCO2 | inconclusive [activator, single point]
18 | Cc1cccc(NS(=O)(=O)c2ccc(NC(=O)CN(c3cc([N+](=O)[O-])ccc3C)S(C)(=O)=O)cc2)c1 | inconclusive [activator, partial curve]
19 | CCNCCNC(=O)c1c(O)c2ccccc2n(CC)c1=O | inactive
20 | COc1ccc(CNCc2cccc(C)c2)cc1 | inconclusive [activator, single point]
21 | Cn1cc(C(=O)c2ccc(Cl)cc2Cl)cc1C(=O)N/N=C(\N)COc1ccc(Cl)cc1Cl | inconclusive [activator, full curve, poor fit]
22 | COc1ccc(C2=CC(=O)CC(c3ccc(OC)cc3)C2)cc1 (configuration not stated) | inactive
23 | Cn1nc(-c2ccc(C(=O)Nc3ccc(F)cc3)cc2)c2ccccc2c1=O | inactive

Row | SMILES | Potency
24 | Cc1ccc(S(=O)(=O)N2[C@@H](c3ccc(Br)cc3)C(C(=O)O)=CC[C@H]2c2cccc(Cl)c2)cc1 | inconclusive [activator, full curve, poor fit]
25 | CCOCCCn1c(SCC(=O)Nc2ccc(NC(C)=O)cc2)nc2ccccc2c1=O | inactive
26 | O=C(C[n+]1ccn(-c2ccccc2)c1)c1ccc([N+](=O)[O-])cc1 | inconclusive [activator, single point]
27 | CCOC(=O)C(C)Oc1cccc2c(=O)n(CC(=O)NCc3ccc(F)cc3)ccc12 (configuration not stated) | inconclusive [activator, full curve, poor fit]
28 | Cc1ccc2nc(SCc3nnc(-c4ccccc4[N+](=O)[O-])o3)c(C#N)cc2c1 | inconclusive [activator, partial curve, poor fit]
29 | N=C(N)N1CCc2ccccc21 | inconclusive [activator, full curve, poor fit]
30 | CCC(C)Sc1nnc(CNC(=O)C23CC4CC(CC(C4)C2)C3)n1C1CCCCC1 (configuration not stated) | inconclusive [activator, partial curve, poor fit]
31 | O=C(CN1C(=O)c2cccc3cccc1c23)N1CCN(c2ccccc2)CC1 | active: 23.1 µM
32 | Cc1occc1C(=O)Nc1cc(=O)n(C)c(=O)n1C | inconclusive [activator, partial curve, poor fit]
33 | COc1ccc2cc(C(=O)C3CCCN(Cc4ccccn4)C3)ccc2c1 (configuration not stated) | inconclusive [activator, single point]
34 | CC(=O)OC1[C@H](Oc2c(O)c(C)c3c4c2[C@@H](C)CC[C@@H]4[C@@H](C)C[C@@H]3C=C(C)C)OC[C@@H](O)[C@@H]1O (some centres not stated) | inconclusive [activator, single point]
35 | CCn1c(CN2c3ccccc3Sc3ccccc32)n[nH]c1=S | inconclusive [activator, single point]
36 | CCN(CC)C(=S)Sc1c(-c2ccccc2)c2cc(Cl)ccc2[nH]c1=O | inconclusive [activator, single point]
37 | Cc1cccc(-c2c3c(=O)n(C)c(=O)n(C)c3cn2-c2ccccc2O)c1 | inactive
38 | CN1CCN(CC(=O)c2cc(C(C)(C)C)c(O)c(C(C)(C)C)c2)CC1 | inconclusive [activator, single point]
39 | CCn1ccc(C(=O)NCc2ccc3c(c2)OCO3)n1 | inconclusive [activator, single point]
40 | Cn1c(SCC(=O)Nc2ccc3c(c2)OCO3)nnc1C(F)(F)F | inactive
41 | Cc1nn(Cc2ccccc2)c(C)c1NC(=O)c1cc(-c2cccs2)on1 | inconclusive [activator, partial curve]
42 | COc1cccc(NC(=S)/C(=C(\[O-])c2cc(C)n(-c3ccccc3F)c2C)[n+]2ccc(N(C)C)cc2)c1 | inconclusive [activator, partial curve, poor fit]
43 | COc1cc2c(cc1OC)C(c1ccccc1)N(C(=O)c1ccccc1)CC2 (configuration not stated) | inactive
44 | NS(=O)(=O)c1ccc(N2N=C(c3ccccc3)CC2c2cccc(F)c2)cc1 (configuration not stated) | active: 2.59 µM
45 | S=C(NCCc1ccccc1)N/N=C/c1ccc(Cl)cc1 | inconclusive [activator, single point]
46 | Cc1cc(NS(=O)(=O)c2ccc(OCCNS(C)(=O)=O)cc2)no1 | inconclusive [activator, full curve, poor fit]

Row | SMILES | Potency
47 | Cc1nccn1C(c1ccccc1)c1ccccc1 | inconclusive [activator, single point]
48 | CCCc1[nH]nc2c1C(c1cccnc1)C(C#N)=C(N)O2 (configuration not stated) | inactive
49 | CCOC(=O)NC(NC(=S)Nc1ccc(OC)cc1)C(Cl)(Cl)Cl (configuration not stated) | inactive
50 | CC1(C)Cc2cccc(OCC(=O)N3CCN(c4cccc(Cl)c4)CC3)c2O1 | inconclusive [activator, partial curve, poor fit]
51 | C=C[C@@H]1c2c(F)cccc2N(S(=O)(=O)c2ccc(C)cc2)[C@H](c2ccc(C(=O)OC)cc2)C1(C#N)C#N | inconclusive [activator, partial curve, poor fit]
52 | O=C(Nn1c(COc2ccccc2)nc2ccccc2c1=O)C(Cl)(Cl)Cl | inconclusive [activator, single point]
53 | O=C(/C=C/c1ccc(OCCCF)cc1)Nc1ccnc(-c2ccncc2)n1 | inconclusive [activator, single point]
54 | O=C(/C=C/c1ccco1)Nc1cccc(-c2nc3ccccc3[nH]2)c1 | inconclusive [activator, partial curve, poor fit]
55 | CCOC(=O)C1=C(C)N(C[C@@H]2CC[C@@H](Cc3ccc(-c4ccccc4)cc3)O2)C(=O)NC1c1ccc(Cl)cc1 (some centres not stated) | inconclusive [activator, single point]
56 | COc1cc(C)c(C(=O)Oc2cc(C)c(C(=O)O)c(O)c2)c(O)c1 | inconclusive [activator, full curve, poor fit]
57 | C[C@H](NC(N)=O)C(=O)N1CCN(S(=O)(=O)c2ccc3ccccc3c2)CC1 | inactive
58 | O=C(Nc1nnc(CCc2ccccc2)s1)c1cccc(F)c1 | inactive
59 | CCCC[C@@H]1C[C@H]1[C@@H](NC(=O)c1cccs1)c1ccc(Cl)cc1 | inconclusive [activator, single point]
60 | COc1ccc(S(=O)(=O)Nc2cccc3ccc(O)cc23)cc1 | active: 20.6 µM
61 | O=C(Nc1nc2ccc(S(=O)(=O)N3CCCCC3)cc2s1)c1cccnc1 | inconclusive [activator, single point]
62 | O=C(CSc1nnc(-c2cccnc2)n1-c1ccc(SC(F)F)cc1)N1CCCc2ccccc21 | inconclusive [activator, single point]
63 | CC1CCCN(C(=O)CSc2nnc3ccccn23)C1 (configuration not stated) | inactive
64 | COc1cc2c(cc1OC)CN(C(=O)/C=C/c1ccc([N+](=O)[O-])cc1)CC2 | inactive
65 | COc1ccc(CCNC(=O)CN(C)S(=O)(=O)c2cccs2)cc1OC | inactive
66 | CC(C)(C)c1ccc(/C=C/C(=O)N2CCCCC2)cc1 | inconclusive [activator, partial curve]
67 | O=C(NCc1ccncc1)c1cc(C(=O)C2CC2)c[nH]1 | inconclusive [activator, single point]
